# Measurements: PubChem BioAssay AID720708 (National Center for Advancing Translational Sciences (NCATS), 2013)
# Screen size: about 360,000 compounds; about 660 (0.18%) were called active. Inconclusive results, whose numbers are uncertain, are shown with a selection of clear calls. Calls follow the shape of the dose curve; as a rule, active = well fitted inhibition curve with a large enough effect; inconclusive = small, poorly fitted or top-dose-only effect; inactive = no such curve, though single readings can be large or run the other way. No potency is given beside an inconclusive call; the fits are too rough. Where a SMILES comes first, the peptide text is derived from it.
# Molecular target: Rap guanine nucleotide exchange factor 4 (Homo sapiens) (UniProt Q8WZA2)
# Assay: qHTS for Antagonist of cAMP-regulated guanine nucleotide exchange factor 2 (EPAC2): primary screen; also: nearly all actives have a fitted effect of over 45% in size
# Details: EPAC2 GEF exchange of Rap1B-BODIPY-GDP, fluorescence; series mostly up to 114 µM
# Potency is read from the fitted curve at half-maximal effect; tags tell the direction and shape of the fitted curve.
# UniProt Q8WZA2, sequence (Q8WZA2 whole entry, looked up): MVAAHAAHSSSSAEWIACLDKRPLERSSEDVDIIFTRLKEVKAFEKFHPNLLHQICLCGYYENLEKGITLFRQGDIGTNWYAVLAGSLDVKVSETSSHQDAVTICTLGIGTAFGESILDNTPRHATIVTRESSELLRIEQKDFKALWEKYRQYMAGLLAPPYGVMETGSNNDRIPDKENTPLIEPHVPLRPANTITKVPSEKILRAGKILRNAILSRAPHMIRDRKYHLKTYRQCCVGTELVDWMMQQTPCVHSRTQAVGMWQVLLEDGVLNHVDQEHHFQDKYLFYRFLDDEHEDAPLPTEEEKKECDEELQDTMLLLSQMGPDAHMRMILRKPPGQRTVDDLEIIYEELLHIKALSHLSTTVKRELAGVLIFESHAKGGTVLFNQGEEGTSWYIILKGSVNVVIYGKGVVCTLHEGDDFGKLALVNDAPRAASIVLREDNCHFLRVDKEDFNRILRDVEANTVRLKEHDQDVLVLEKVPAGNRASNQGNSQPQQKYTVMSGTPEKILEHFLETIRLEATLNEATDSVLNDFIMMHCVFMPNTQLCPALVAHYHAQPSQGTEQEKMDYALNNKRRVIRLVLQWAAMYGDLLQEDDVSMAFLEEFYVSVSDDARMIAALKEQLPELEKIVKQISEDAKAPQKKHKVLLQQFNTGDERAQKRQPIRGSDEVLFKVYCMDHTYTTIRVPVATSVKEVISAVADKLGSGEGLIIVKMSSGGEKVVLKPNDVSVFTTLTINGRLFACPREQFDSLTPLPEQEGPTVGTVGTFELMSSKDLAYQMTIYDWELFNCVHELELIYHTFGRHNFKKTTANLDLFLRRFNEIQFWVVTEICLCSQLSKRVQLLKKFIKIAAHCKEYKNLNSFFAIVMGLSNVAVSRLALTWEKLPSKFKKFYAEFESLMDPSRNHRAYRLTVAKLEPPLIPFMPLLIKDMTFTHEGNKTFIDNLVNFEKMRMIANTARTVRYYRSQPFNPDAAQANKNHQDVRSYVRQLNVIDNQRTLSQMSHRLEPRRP
row,SMILES,Potency
1,COc1cc2[nH]c(=S)n(Cc3ccccc3)c(=O)c2cc1OC,"inconclusive [inhibitor, full curve, poor fit]"
2,CSCC[C@@H](CO)NC(=O)[C@H]1O[C@@H](n2ccc(N)nc2=O)[C@H](O)[C@@H]1O,inactive
3,CN(C)CCCN(C(=O)c1ccc(S(=O)(=O)N2CCc3ccccc32)cc1)c1nc2ccc(Cl)cc2s1,"inconclusive [inhibitor, partial curve]"
4,COCCCNC(=S)N1CCN(S(C)(=O)=O)CC1,"inconclusive [inhibitor, partial curve]"
5,"CCC(C)C(N)C1=NC(C(=O)N[C@@H](CC(C)C)C(=O)N[C@H](CCC(=O)[O-])C(=O)N[C@H](C(=O)N[C@H]2CCCCNC(=O)[C@H](CC(N)=O)NC(=O)[C@@H](CC(=O)[O-])NC(=O)[C@H](Cc3cnc[nH]3)NC(=O)[C@@H](Cc3ccccc3)NC(=O)[C@H]([C@@H](C)CC)NC(=O)[C@@H](CCCN)NC2=O)[C@@H](C)CC)CS1.[Zn+2] (stereo partly drawn) (HELM PEPTIDE1{[CCC(C)C(N)C1=NC(C(=O)[*:2])CS1].L.[dE].I.K.[NCCC[C@@H](N[*:1])C(=O)[*:2]].I.[dF].H.[dD].N}$PEPTIDE1,PEPTIDE1,5:R3-11:R2$$$V2.0)","inconclusive [inhibitor, partial curve]"
6,CCN(CC)S(=O)(=O)c1ccc2c(c1)N(CC(=O)NCCCN1CC(C)CC(C)C1)C(=O)CO2 (stereo not drawn),inactive
7,Cc1ccc(OCCNC(=O)c2ccccc2OCc2c(C)noc2C)cc1,"inconclusive [inhibitor, partial curve]"
8,O=C(NCc1ccco1)c1cc(-c2ccccc2)on1,inactive
9,O=[N+]([O-])c1cc(/C=N/O)ccc1N1CCCC1,"inconclusive [inhibitor, single point]"
10,COCCN(C(=O)c1snc(C(N)=O)c1N)C(C(=O)NC1CCCCC1)c1ccc(N(C)C)cc1 (stereo not drawn),"inconclusive [inhibitor, single point]"
11,COc1ccccc1CCC(=O)Nc1ccc2c(c1)c(=O)n(C)n2C,"inconclusive [inhibitor, partial curve, poor fit]"
12,COC(=O)[C@@]12C[C@@H](CC(=O)NCc3cccc4ccccc34)C(=O)N(Cc3ccccc3)C1=CCC(C)(C)C2,inactive
13,O=S(=O)(c1ccccc1F)N1CCCc2ccccc21,"inconclusive [inhibitor, partial curve]"
14,COc1cc(NC(=O)CCN2CCN(C/C=C/c3ccccc3)CC2)cc(OC)c1,inactive
15,Cc1nc(NC(=O)c2oc3ccccc3c2C)sc1C(=O)N(C)C,inactive
16,O=C(CN1C(=O)C2C3C=CC(C3)C2C1=O)Nc1ccc2c(c1)OCCO2 (stereo not drawn),inactive
17,Cc1ccc(S(=O)(=O)N2[C@@H](c3ccc(Cl)cc3)C(C(=O)O)=CC[C@H]2c2ccc(C(C)C)cc2)cc1,"inconclusive [inhibitor, partial curve]"
18,COc1cc(C2CC(=O)Oc3cc(C)c(Br)c(C)c32)cc(OC)c1OC (stereo not drawn),"inconclusive [inhibitor, full curve]"
19,COc1ccc2c(c1)c(C(C)=O)c(C)n2CCc1ccccc1,"inconclusive [inhibitor, full curve, poor fit]"
20,Cc1nc2ccc(S(=O)(=O)Nc3ccccc3C)cc2s1,inactive
21,CC(=O)C1=C(C)NC(SCC(=O)c2ccc(Cl)cc2)=C(C#N)C1c1ccco1 (stereo not drawn),inactive

row,SMILES,Potency
1,COc1cc(/C=C2\SC(=S)N(NS(=O)(=O)c3ccccc3)C2=O)ccc1O,"inconclusive [inhibitor, partial curve]"
2,O=C(Cc1ccc(Cl)c(Cl)c1)Nc1ccc(S(=O)(=O)Nc2ncccn2)cc1,"inconclusive [inhibitor, partial curve]"
3,N#CC1=C(N)Oc2cc(N)ccc2C1c1ccc(Cl)cc1 (stereo not drawn),"inconclusive [inhibitor, partial curve]"
4,Cc1ccc(S(=O)(=O)N2[C@@H](c3ccc(Br)cc3)C(C(=O)O)=CC[C@H]2c2cccs2)cc1,"inconclusive [inhibitor, single point]"
5,CC(C)(C)c1cc(NCc2ccccn2)n2ncc(-c3ccccc3)c2n1,"inconclusive [inhibitor, full curve]"
6,Cc1ccc([C@@H]2CC(=O)[C@@H]3CN(S(=O)(=O)c4ccccc4C)[C@H](c4ccc(Cl)cc4)C[C@@H]3N2S(=O)(=O)c2ccc(C)cc2)cc1,inactive
7,Cc1nn(CC(=O)N/N=C/c2ccc(F)cc2)c(C)c1[N+](=O)[O-],"inconclusive [inhibitor, single point]"
8,O=Cc1ccc(OCc2cccc(C(F)(F)F)c2)cc1O,"inconclusive [inhibitor, full curve, poor fit]"
9,CCOc1ccc(-c2n[nH]c(C)c2Oc2ccccc2OC)c(O)c1,"inconclusive [inhibitor, partial curve]"
10,COc1ccc(/C=C(\CC(=O)O)c2nc3ccccc3o2)cc1,inactive
11,COc1ccc(OC)c(C(=O)c2c(C)oc3cc([N+](=O)[O-])c(O)c([N+](=O)[O-])c23)c1,"inconclusive [inhibitor, partial curve]"
12,N#Cc1cc(C#N)c(N2CCN(c3cccc(Cl)n3)CC2)nc1N,inactive
13,COc1cccc(NC2c3ccccc3C(=O)N2Cc2ccccc2Cl)c1 (stereo not drawn),"inconclusive [inhibitor, single point]"
14,COc1ccc(NC(=O)/C(=C\c2ccccc2)NC(=O)c2ccco2)cc1,"inconclusive [inhibitor, single point]"
15,Cc1ccc(C)c(NC(=O)C(=O)NCc2ccccn2)c1,"inconclusive [inhibitor, single point]"
16,O=C(CCC(=O)N1CCSc2ccccc21)NCc1ccccc1,"inconclusive [inhibitor, partial curve]"
17,Clc1ncccc1-c1nnn(-c2ccccc2Br)n1,"inconclusive [inhibitor, full curve]"
18,Cc1cccc(NC(=O)CCC(=O)OCC(=O)c2ccc(Oc3ccc([N+](=O)[O-])cc3)cc2)c1,"inconclusive [inhibitor, single point]"
19,COc1cc(C)c(NC(c2ccccc2)c2ccccc2)cc1OC,"inconclusive [inhibitor, partial curve]"
20,O=C(NN1CCOCC1)c1cccc(COc2cccc(Br)c2)c1,"inconclusive [inhibitor, full curve]"
21,COc1ccccc1-c1nc2ccccc2nc1-c1ccccc1,"inconclusive [inhibitor, partial curve]"

row,SMILES,Potency
1,N/C(CSc1nc(-c2ccccc2)c(-c2ccccc2)o1)=N\O,"inconclusive [inhibitor, partial curve]"
2,Cc1[nH]c2ccccc2c1/C=N/Nc1ccc([N+](=O)[O-])cc1,inactive
3,C=CCN(CC=C)Cc1cc(=O)oc2cc(C)c(Cl)cc12,"inconclusive [inhibitor, partial curve, poor fit]"
4,O=C(Nc1ccc(Cl)cc1)c1ccc(-n2cncn2)c([N+](=O)[O-])c1,inactive
5,COC(=O)c1ccc(C2/C(=C(\O)c3ccc4c(c3)OCCO4)C(=O)C(=O)N2c2nnc(C)s2)cc1 (stereo not drawn),inactive
6,COc1cc(/C=C/C(=O)O)ccc1OS(=O)(=O)c1ccc(C)cc1,inactive
7,Cc1ccc(-n2nc(CC#N)c(C#N)c2N)cc1Cl,"inconclusive [inhibitor, partial curve]"
8,O=C(COc1ccccc1F)N1c2ccccc2CCc2ccccc21,"inconclusive [inhibitor, partial curve]"
9,CC(=O)c1ccccc1OCC(O)CN1CCN(CCN2C(=O)c3cccc4cccc(c34)C2=O)CC1 (stereo not drawn),"inconclusive [inhibitor, partial curve]"
10,CC(=O)N1C[C@H]2CON(C)[C@H]2C[C@H]1c1cccc(-c2cc(Cl)cc(Cl)c2)c1,inactive
11,CCCS(=O)(=O)N1CCC(C(=O)NCCCN(CC)c2cccc(C)c2)CC1,"inconclusive [inhibitor, single point]"
12,CC(=O)c1cccc(NC(=O)N2CCCC2C(=O)NC2CCCC2)c1 (stereo not drawn),inactive
13,CC1CCN(C(C(=O)Nc2ccc(C(C)C)cc2)c2ccc3c(c2)OCO3)CC1 (stereo not drawn),"inconclusive [inhibitor, single point]"
14,Cc1ccccc1S(=O)(=O)NC(=O)C1(C)CCN1C(=O)C1(c2ccc(Cl)cc2)CC1 (stereo not drawn),"inconclusive [inhibitor, partial curve]"
15,CC1(C)CC(CCNS(=O)(=O)c2ccccc2)(c2ccccc2)CCO1 (stereo not drawn),"inconclusive [inhibitor, single point]"
16,C=CCNC(=O)/C(=C\c1ccc(OC)cc1)NC(=O)c1ccc([N+](=O)[O-])cc1,inactive
17,Cc1snc(SCc2c(F)cccc2Cl)c1C#N,"inconclusive [inhibitor, partial curve]"
18,COc1ccccc1C(=O)c1ccccc1C(=O)c1ccccc1,"inconclusive [inhibitor, partial curve]"
19,Cc1cccc(NC(=O)Oc2ccc(Cl)c3cccnc23)c1,inactive
20,CCc1nc2c(OCCOc3ccc(F)cc3)cccn2c1N(C)C(=O)c1cccs1,"inconclusive [inhibitor, partial curve]"
21,COc1cc2c(cc1OC)C(COc1cc(C)cc(C)c1)N(C(C)=O)CC2 (stereo not drawn),"inconclusive [inhibitor, partial curve]"
